Among all 360,000 compounds or so, about 16,000 (4.4%) were called active. Inconclusive results, whose numbers are uncertain, are shown with a selection of clear calls. The call rests on the fitted dose curve; in most records, active means well fitted inhibition curve with a large enough effect; inconclusive means small, poorly fitted or top-dose-only effect; inactive means no such curve, though single readings can be large or run the other way. Where the call is inconclusive, the potency comes from a doubtful curve fit.
biological target: Bromodomain adjacent to zinc finger domain protein 2B (Homo sapiens) (UniProt Q9UIF8); assay: qHTS Assay for Inhibitors of BAZ2B; conditions: AlphaScreen BAZ2B-H3K14Ac peptide displacement; activity change, negative = inhibition: at 114 µM (top of the series) unless noted; further: nearly all actives have a fitted effect of over 60% in size
Sequence of UniProt Q9UIF8 (Q9UIF8 whole entry, looked up, the tested form may be a part): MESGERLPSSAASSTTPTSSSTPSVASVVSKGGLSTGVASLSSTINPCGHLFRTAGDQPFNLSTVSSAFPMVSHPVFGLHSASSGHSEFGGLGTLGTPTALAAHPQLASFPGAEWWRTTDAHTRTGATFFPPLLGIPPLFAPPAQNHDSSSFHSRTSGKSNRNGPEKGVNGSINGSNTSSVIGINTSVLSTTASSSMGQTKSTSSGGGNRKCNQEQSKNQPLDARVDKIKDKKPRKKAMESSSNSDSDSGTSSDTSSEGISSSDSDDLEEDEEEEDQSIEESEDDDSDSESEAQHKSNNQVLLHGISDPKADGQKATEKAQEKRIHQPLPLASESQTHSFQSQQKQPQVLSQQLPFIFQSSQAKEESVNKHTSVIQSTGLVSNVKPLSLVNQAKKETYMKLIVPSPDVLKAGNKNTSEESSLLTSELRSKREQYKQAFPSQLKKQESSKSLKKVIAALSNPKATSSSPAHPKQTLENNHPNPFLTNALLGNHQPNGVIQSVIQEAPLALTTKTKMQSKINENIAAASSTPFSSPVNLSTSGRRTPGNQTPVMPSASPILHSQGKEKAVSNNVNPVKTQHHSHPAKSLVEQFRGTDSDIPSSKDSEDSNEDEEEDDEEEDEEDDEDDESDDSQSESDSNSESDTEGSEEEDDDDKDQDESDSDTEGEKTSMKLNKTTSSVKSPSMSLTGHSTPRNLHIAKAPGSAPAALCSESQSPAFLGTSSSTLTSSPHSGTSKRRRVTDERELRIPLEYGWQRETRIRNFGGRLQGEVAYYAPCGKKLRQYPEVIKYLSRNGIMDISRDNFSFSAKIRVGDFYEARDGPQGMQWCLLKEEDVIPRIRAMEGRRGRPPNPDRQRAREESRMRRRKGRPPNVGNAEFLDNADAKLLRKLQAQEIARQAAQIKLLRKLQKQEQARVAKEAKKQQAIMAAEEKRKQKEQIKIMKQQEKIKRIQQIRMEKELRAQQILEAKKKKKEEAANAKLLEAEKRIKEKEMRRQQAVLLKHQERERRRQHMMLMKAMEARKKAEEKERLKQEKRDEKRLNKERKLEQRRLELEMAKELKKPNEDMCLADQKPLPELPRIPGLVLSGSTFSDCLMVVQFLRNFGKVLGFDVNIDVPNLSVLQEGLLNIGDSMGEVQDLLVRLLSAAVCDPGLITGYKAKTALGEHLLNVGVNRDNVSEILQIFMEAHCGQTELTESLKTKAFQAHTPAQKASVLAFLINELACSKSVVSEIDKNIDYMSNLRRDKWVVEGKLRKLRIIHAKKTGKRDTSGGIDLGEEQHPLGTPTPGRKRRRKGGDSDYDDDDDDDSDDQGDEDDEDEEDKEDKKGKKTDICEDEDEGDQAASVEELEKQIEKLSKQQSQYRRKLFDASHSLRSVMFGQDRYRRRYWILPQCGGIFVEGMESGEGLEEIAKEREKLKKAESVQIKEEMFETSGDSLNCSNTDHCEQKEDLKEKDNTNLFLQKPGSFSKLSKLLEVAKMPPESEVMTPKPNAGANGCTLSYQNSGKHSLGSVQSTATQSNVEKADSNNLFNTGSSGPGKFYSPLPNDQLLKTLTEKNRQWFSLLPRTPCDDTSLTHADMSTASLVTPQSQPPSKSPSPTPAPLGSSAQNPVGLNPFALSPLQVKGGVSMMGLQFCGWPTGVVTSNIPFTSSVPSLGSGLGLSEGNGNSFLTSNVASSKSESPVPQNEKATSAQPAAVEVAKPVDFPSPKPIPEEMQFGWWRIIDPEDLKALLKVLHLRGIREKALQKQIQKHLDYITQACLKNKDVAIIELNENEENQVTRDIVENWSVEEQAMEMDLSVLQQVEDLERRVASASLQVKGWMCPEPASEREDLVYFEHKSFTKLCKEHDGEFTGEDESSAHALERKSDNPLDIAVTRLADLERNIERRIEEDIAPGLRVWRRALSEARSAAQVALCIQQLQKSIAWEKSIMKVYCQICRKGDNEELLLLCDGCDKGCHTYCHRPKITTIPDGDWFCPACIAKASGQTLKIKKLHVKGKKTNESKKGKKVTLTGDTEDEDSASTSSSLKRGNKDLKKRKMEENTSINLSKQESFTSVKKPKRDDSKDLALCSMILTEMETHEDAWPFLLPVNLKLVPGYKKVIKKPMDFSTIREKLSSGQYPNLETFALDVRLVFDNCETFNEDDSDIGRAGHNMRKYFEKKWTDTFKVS
In short: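 In this displacement format the biotinylated H3(5-23) peptide acetylated at Lys14 serves as ligand at 50 nM, with BAZ2B at 50 nM in PBS pH 7.4 containing 0.01% Tween-20. Donor and acceptor beads are 10 ug/mL final.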
On the % scale 0 is the no-effect control and ±100 the full control effect; potency means the concentration at half of the fitted maximal effect; tags describe the fitted curve by direction and shape.

Structure (SMILES) | activity change, negative = inhibition | Potency
O=C(COc1ncnc2ccccc12)N1CCN(C(=O)c2ccco2)CC1 | inactive: 3.33% | 
COc1ccc(N2CCN(Cc3nc(-c4ccc(C)cc4)no3)CC2)cc1 |  | inconclusive: 12.6 µM [inhibitor, full curve]
COC(=O)[C@H](Cc1ccccc1)N(C)S(=O)(=O)c1cccc(S(=O)(=O)N(C)[C@@H](Cc2ccccc2)C(=O)OC)c1 |  | inconclusive: 89.1 µM [inhibitor, single point]
O=C(C1=C(O)C(=O)N(Cc2cccnc2)C1c1ccccn1)c1cccs1 (stereo not given) |  | inconclusive: 79.4 µM [inhibitor, single point]
COC(=O)Cn1c(Cc2ccccc2)nc2ccccc21 | inactive: -29.5% | 
COc1cc2c(cc1OC)CN(CC(=O)Nc1ccc(S(=O)(=O)N3CCCC3)cc1)CC2 |  | inconclusive: 79.4 µM [inhibitor, single point]
CCc1ccc(/C=C2\C(=N)N3N=C(CC(=O)N4CCCCC4)SC3=NC2=O)cc1 |  | inconclusive: 39.8 µM [inhibitor, single point]
Cc1ccc2[nH]c(=O)c(C(c3nnnn3Cc3ccccc3)N3CCc4ccccc43)cc2c1 (stereo not given) |  | inconclusive: 35.5 µM [inhibitor, full curve, poor fit]
COc1ccc(CCNC(=O)/C=C/c2ccco2)cc1 |  | inconclusive: 89.1 µM [inhibitor, single point]
Cc1ccc(-c2nc3cc(NC(=O)c4cc(Br)ccc4Cl)ccc3o2)cc1 |  | inconclusive: 79.4 µM [inhibitor, single point]
Cn1c(=O)[nH]c(NC2CCCCC2)c(N=O)c1=O |  | inconclusive: 89.1 µM [inhibitor, single point]
O=C(CN1CCN(c2ccccc2)CC1)Nc1ccc(OCc2ccccc2)cc1 |  | inconclusive: 25.1 µM [inhibitor, full curve]
CCOC(=O)C1(CCC(C)C)CC(CSc2nc3ccccc3[nH]2)OC1=O (stereo not given) |  | inconclusive: 89.1 µM [inhibitor, single point]
Cc1ccccc1OCC(O)CN1CCN(C)CC1 (stereo not given) |  | inconclusive: 89.1 µM [inhibitor, single point]
CCc1ccc(-c2cc(-c3n[nH]c(=S)n3CC)c3ccccc3n2)cc1 |  | inconclusive: 79.4 µM [inhibitor, single point]
COc1ccc2[nH]cc(CCn3ccc(O)c(C/C=C/c4ccccc4)c3=O)c2c1 |  | inconclusive: 22.4 µM [inhibitor, full curve]
COc1ccc(/C=C/C(=O)c2cc(F)ccc2OC(=O)c2ccc(OC)c(OC)c2)cc1OC |  | inconclusive: 44.7 µM [inhibitor, partial curve]
O=C(Cn1nc(-c2cccc(Cl)c2)ccc1=O)NCC1COCCO1 (stereo not given) |  | active: 79.4 µM
N/C(=N\N=C\c1ccc2c(c1)OCO2)SC1CC(=O)N(c2ccc(C(=O)O)cc2)C1=O (stereo not given) |  | inconclusive: 89.1 µM [inhibitor, partial curve]
Cc1cccc(NC(=S)NC(=O)CCc2ccccc2)c1C |  | inconclusive: 89.1 µM [inhibitor, single point]
COc1ccc(N2CCN(C(=O)c3ccc4c(=O)n5c(nc4c3)CCCCC5)CC2)cc1 |  | inconclusive: 63.1 µM [inhibitor, partial curve]
CC1(C)CC(=O)c2c(O)cc(OCC(=O)N3CCN(c4ccccc4)CC3)cc2O1 |  | inconclusive: 70.8 µM [inhibitor, single point]
Cc1sc2ncnc(N3CCC(C(=O)Nc4ccc(Cl)cc4Cl)CC3)c2c1C | inactive: -1.53% | 
Cc1ccc(CNc2ccc3c(c2)ncn3C)cc1 |  | inconclusive: 35.5 µM [inhibitor, partial curve]

Structure (SMILES) | activity change, negative = inhibition | Potency
COc1ccc(-c2csc(NC(=O)C3=COCCO3)n2)cc1OC |  | inconclusive: 79.4 µM [inhibitor, single point]
CC(C)(/C=N/O)/[N+]([O-])=C/c1ccco1 | inactive: -0.481% | 
Cc1nn(CC(=O)N(C)c2c(N)n(Cc3ccccc3)c(=O)[nH]c2=O)c(C)c1[N+](=O)[O-] | inactive: -3.34% | 
Cn1c(=O)n(C)c2cc(NS(=O)(=O)c3ccc(C(C)(C)C)cc3)c(NCc3ccccc3)cc21 |  | active: 39.8 µM
CCOC(=O)N1CCC(NC(=S)Nc2ccc3nc(N4CCN(C)CC4)cc(C)c3c2)CC1 | inactive: -16.4% | 
COc1ccc(-c2nn(CC(=O)Nc3ccc(Cl)c(Cl)c3)c(=O)c3ccccc23)cc1 |  | inconclusive: 89.1 µM [inhibitor, single point]
CCC(=O)Nc1cc(-c2nc3ccccc3s2)c(Cl)cc1Cl |  | inconclusive: 89.1 µM [inhibitor, single point]
CCOc1ccc(NS(=O)(=O)c2cc(OCC(N)=O)c(C)cc2Cl)cc1 |  | inconclusive: 79.4 µM [inhibitor, partial curve]
CCS(=O)(=O)N1CCc2cc(C(=O)Nc3cc(OC)c(Cl)cc3OC)ccc21 |  | inconclusive: 50.1 µM [inhibitor, partial curve]
Cc1ccc(NC(=O)/C(=C/C=C/c2ccccc2)NC(=O)c2ccccc2)cc1 | inactive: 3.26% | 
O=C(NC1CCCC1)c1cc(S(=O)(=O)N2CCCC2)ccc1Cl | inactive: -6.66% | 
CN(C)c1cc[n+](CC(=O)Nc2ccc(OC(F)F)cc2)cc1 |  | active: 50.1 µM
CCC(C)c1ccc(S(=O)(=O)N2CCN(c3ccccn3)CC2)cc1 (stereo not given) | inactive: -3.9% | 
Cc1cc(=O)n(CC(=O)NC(C)c2ccccc2)c2c1c(C)nn2C (stereo not given) |  | inconclusive: 89.1 µM [inhibitor, single point]
O=[N+]([O-])c1c(Nc2ccccc2O)cc(Cl)c2nonc12 | inconclusive: -81.5% [inhibitor] | 
CC(C)(C)Nc1c(-c2cccs2)nc2ccccn12 |  | inconclusive: 79.4 µM [inhibitor, single point]
O=C(Cc1ccc(NC2=NC3CS(=O)(=O)CC3S2)cc1)N1CCN(c2ccc(F)cc2)CC1 (stereo not given) | inactive: 11.5% | 
COc1ccc(/C(C)=N/NC(=O)CNC(=O)/C=C\c2ccccc2)c(OC)c1 |  | inconclusive: 79.4 µM [inhibitor, single point]
CCC1Sc2ccc(S(=O)(=O)CCC(=O)Nc3cccc(Br)c3)cc2NC1=O (stereo not given) |  | inconclusive: 79.4 µM [inhibitor, single point]
Cc1ccc(Nc2nc(N)nc(CSc3nnnn3-c3ccccc3)n2)cc1 |  | inconclusive: 79.4 µM [inhibitor, single point]
CCCOc1ccc(CN(CCC#N)C(=S)NC(=O)c2ccccc2)cc1 |  | inconclusive: 15.8 µM [inhibitor, full curve]
CCOc1ccc(CC(=O)C2C(=O)CCCC2=O)cc1OCC |  | inconclusive: 89.1 µM [inhibitor, single point]
Cc1ccc(Nc2nc(-c3c(C)nc4ccccn34)cs2)cc1 | inactive: -38.1% | 
Cc1ccc(S(=O)(=O)N2CCN(Cc3ccco3)CC2)c(C)c1 | inactive: -23.5% | 

Structure (SMILES) | activity change, negative = inhibition | Potency
CCOC(=O)C1CCN(Cc2ccc(N(C)C)cc2)CC1 |  | active: 44.7 µM
CCCCOc1ccc(C(=O)Nc2nc3c(s2)CC(C)CC3)cc1 (stereo not given) |  | inconclusive: 89.1 µM [inhibitor, single point]
CC(=O)Nc1sc(N/N=C\c2ccccc2Cl)nc1-c1cccs1 | inactive: 14.5% | 
Cc1noc(/C=C/c2ccco2)c1S(=O)(=O)N1CCC(C(=O)N2CCc3ccccc3C2)CC1 |  | inconclusive: 44.7 µM [inhibitor, partial curve]
COC(=O)c1cccc(CN2C(=O)SC(Nc3ccc(Cl)cc3)C2=O)c1 (stereo not given) | inactive: -1.09% | 
COc1ccc(NS(=O)(=O)c2cc3c(cc2C)N(C)CCO3)c(OC)c1 |  | active: 50.1 µM
Cc1cccnc1CCNC(=O)c1ccc(OC2CCN(Cc3ccccn3)CC2)cc1 |  | inconclusive: 89.1 µM [inhibitor, single point]
O=C(NC1CCCC1)C1CCCN1S(=O)(=O)c1cccc2cccnc12 (stereo not given) | inactive: 5.08% | 
S=C(NCc1ccccn1)Nc1ccccc1 |  | active: 79.4 µM
CCC(C(=O)N1CCN(c2ccc(OC)cc2)CC1)n1nc(C)n2c(cc3occc32)c1=O (stereo not given) |  | inconclusive: 79.4 µM [inhibitor, partial curve]
CCCOc1ccc(C(C)=O)cc1CSc1nc(O)cc(=O)[nH]1 |  | inconclusive: 7.08 µM [inhibitor, single point]
CCN(CC)C(=O)c1sc2nc(-c3cccs3)cc(-c3ccc(Cl)cc3)c2c1N | inactive: 30.4% [at 57.1 µM] | 
CCOCCn1c2ccccc2c2nc3ccccc3nc21 | inactive: 140% | 
COc1ccc(C(=O)Nc2ccc(NC(=O)c3cccc(F)c3)cn2)cc1 |  | inconclusive: 79.4 µM [inhibitor, partial curve]
CCC(c1nnnn1Cc1ccco1)N(Cc1cc2cc(OC)ccc2[nH]c1=O)C1CCCCC1 (stereo not given) |  | inconclusive: 50.1 µM [inhibitor, partial curve]
O=C(N/N=C/c1ccc(O)c(O)c1)C1c2ccccc2Oc2ccccc21 |  | inconclusive: 70.8 µM [inhibitor, single point]
Cc1c(NC(=O)CSc2ccc(Cl)cc2)cccc1-c1nc2cc(Cl)ccc2o1 | inactive: 0.815% | 
COc1cc(NC(=O)c2nccnc2C(=O)O)cc(OC)c1 |  | inconclusive: 89.1 µM [inhibitor, single point]
Nc1c(NCc2ccccc2)c2ccccc2oc1=O |  | inconclusive: 79.4 µM [inhibitor, single point]
COc1ccc(CCNC(=O)Cn2nc(C)c3c(C)n(-c4ccc(C)cc4)nc3c2=O)c(OC)c1 |  | active: 50.1 µM
N#Cc1nc(COc2ccc(F)cc2)oc1NCCN1CCOCC1 |  | inconclusive: 89.1 µM [inhibitor, single point]
COc1ccc(NC(=O)CC2C(=O)N(c3ccc(C)cc3)C(=O)N2Cc2ccc(C)cc2)cc1 (stereo not given) | inactive: -1.18% | 

Reference: PubChem BioAssay AID504333 (National Center for Advancing Translational Sciences (NCATS), 2011)
